Over roughly 33,000 sequences, “E-score (-0.5 to 0.5)” has its median near -0.013; the highest 2% begin near 0.3. The list shows a part of the results.
These sequences were tested against T1, Msn1 (UniProt P22148) (assay: PBM E-score (8-mer binding enrichment) (E-score (-0.5 to 0.5)); higher = stronger / more preferred TF binding; most listed sequences are background and not binding sites). Settings: protein concentration: 200 nM; construct: GST-full length.
T1 sequence: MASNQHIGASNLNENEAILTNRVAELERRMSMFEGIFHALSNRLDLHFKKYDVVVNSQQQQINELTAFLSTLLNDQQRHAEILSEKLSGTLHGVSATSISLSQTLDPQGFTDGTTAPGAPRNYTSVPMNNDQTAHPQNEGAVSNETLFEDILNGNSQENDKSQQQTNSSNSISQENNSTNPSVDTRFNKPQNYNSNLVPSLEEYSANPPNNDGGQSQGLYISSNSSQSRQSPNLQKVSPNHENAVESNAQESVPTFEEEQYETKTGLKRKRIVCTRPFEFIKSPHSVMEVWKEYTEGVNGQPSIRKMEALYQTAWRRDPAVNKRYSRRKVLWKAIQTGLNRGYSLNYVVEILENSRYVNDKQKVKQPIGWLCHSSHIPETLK
In short: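 Yeast transcription factors, full-length or as DNA-binding domains, were expressed with a GST tag using PURExpress in vitro transcription/translation. At about 100-200 nM they were applied to universal all-10-mer Agilent arrays, double-stranded by primer extension on fresh or once-stripped slides. Fluorescent anti-GST detected bound protein, and masliner normalised the scans. E-scores for ungapped eight-base words, pooled with reverse complements, came from the Universal PBM Analysis Suite.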

Row | Sequence | PBM E-score
1 | ACCACCCG | -0.272
2 | AACGTATG | -0.0294
3 | CAAGAGGG | -0.207
4 | ATGGATGA | -0.011
5 | CCTCATGA | -0.0741
6 | TCACATCA | -0.0539
7 | ACCTAGTC | -0.116
8 | AGGGCTAT | -0.375
9 | ATCCGTTG | 0.0973
10 | TACACGAA | 0.224
11 | GACCACCC | -0.302
12 | CCGGAGCC | -0.136
13 | GCCTGGCC | -0.105
14 | ATACGATA | 0.112
15 | ACCTTGAA | -0.0438
16 | CCTATCCA | -0.133
17 | GACTATGC | 0.071
18 | ACGTAAGT | -0.066
19 | AAGCCTTG | 0.0423
20 | ACGAACTG | -0.0517
21 | AAATTACG | -0.0272
22 | AGGGATGC | -0.182
23 | ACTATGAC | 0.0642
24 | ATTTGTCG | 0.451
25 | ATAGGGTG | -0.217

Row | Sequence | PBM E-score
26 | GTTGGATA | 0.0207
27 | TCATATCA | 0.0312
28 | CCATCCAC | -0.119
29 | CCGCAACG | -0.0463
30 | ATTATCAA | 0.2
31 | AACTGATC | -0.156
32 | ACTCTTGG | -0.0324
33 | CTCCGACA | 0.174
34 | CCCATCGG | -0.0334
35 | AGGCTCTA | -0.139
36 | ATCGCTCC | -0.163
37 | TCAAGAGA | -0.123
38 | CATAAGGA | 0.159
39 | AGTCATCC | 0.0357
40 | GCGCGTAC | 0.0398
41 | CAGCCCGG | -0.168
42 | CAGGATCG | -0.0602
43 | CCCGGAAA | 0.0372
44 | ACTAGCGC | 0.00695
45 | AAAGAGAG | -0.2
46 | AATGGAAG | 0.0312
47 | CTGCCGAA | -0.0244
48 | ACTGGCGA | -0.25
49 | CACTACCC | -0.148
50 | ACGACATC | 0.163

Row | Sequence | PBM E-score
51 | ACACCGAG | 0.075
52 | CCTGGAAG | -0.314
53 | CAATTTCG | 0.0208
54 | ACTAATCA | 0.152
55 | AAGTTCCG | 0.0122
56 | GTGCAGGA | -0.202
57 | AAACGGGA | 0.144
58 | AAAAATCG | 0.0175
59 | AAGCTCCT | -0.176
60 | ACTTCTTA | -0.0406
61 | TACTGAGA | 0.0695
62 | GCCCCGAA | 0.0567
63 | CAGCTCTA | -0.137
64 | CTATGATA | -0.0408
65 | GCATCCCA | -0.305
66 | GGTTGGTA | 0.0725
67 | AAAGCAGG | 0.00881
68 | TGCCGGCA | 0.194
69 | CATGGGGG | -0.32
70 | CAGCGCGA | -0.087
71 | AGCATAGC | -0.198
72 | GGTCTCTA | -0.0404
73 | CGCTACCG | 0.00385
74 | AGCGATCA | -0.0507
75 | GGAGTAAC | -0.197

Row | Sequence | PBM E-score
76 | AACGACCT | -0.043
77 | CATTGCGG | 0.0597
78 | CTGTGTGA | -0.19
79 | GCGTGTGA | -0.0575
80 | TTCATGAA | 0.15
81 | ACCCGTAG | -0.3
82 | ACAACCTC | -0.0594
83 | CGCTTATC | -0.115
84 | ATCGCAAG | 0.0359
85 | CAGGGGCG | -0.409
86 | CCAGTAAC | -0.162
87 | AACGCCTC | -0.293
88 | CTAAAGTA | -0.148
89 | GGTGTACA | 0.0363
90 | AGCCTGCA | -0.0191
91 | CTATATAG | 0.0422
92 | ATTGCCGA | 0.0596
93 | AGAATGGA | 0.098
94 | CTTCCCCA | -0.237
95 | CCAATTTA | 0.209
96 | AGGAGGCG | -0.254
97 | GAGGCACA | -0.0819
98 | CGCGGTTC | 0.186
99 | TAAGCGTA | -0.0894
100 | TACCCTCA | -0.109

Row | Sequence | PBM E-score
101 | GCCCAGTA | -0.217
102 | AGGGGCTC | -0.331
103 | CCAGCGCA | -0.0348
104 | GTTACAAA | 0.158
105 | AAGGTACC | 0.0421
106 | ACTTGTAC | 0.257
107 | CCTCTTCC | -0.321
108 | ATGGTAGC | -0.1
109 | GACGAACC | 0.0173
110 | CTTAGACC | -0.0214
111 | ACCGGCAC | 0.0381
112 | ACAGTGAG | -0.0223
113 | CCTTCCAC | -0.276
114 | AATTACCT | 0.0704
115 | GGGCATTA | -0.106
116 | CTTAGCTC | -0.26
117 | GCTCACTA | -0.0756
118 | AAAATCTT | 0.0233
119 | AGAGGGAG | -0.29
120 | GGCTAGCC | -0.167
121 | AGTTAACG | 0.0384
122 | ACGGGCTG | -0.11
123 | TGACCCCA | -0.176
124 | CAGTCTAA | 0.102
125 | TCGGTAGA | 0.153

Row | Sequence | PBM E-score
126 | CAGGAAGG | -0.156
127 | CTTCCATA | -0.0492
128 | CAGGTAGA | -0.142
129 | ACCCCAGT | -0.138
130 | AGATGATG | -0.0445
131 | GTCGTTTA | 0.121
132 | GGGGGGCA | -0.415
133 | GGCCGTTA | -0.0233
134 | TAGATTAA | 0.137
135 | CCTTCGAA | -0.0899
136 | CGAGCGTC | -0.232
137 | CCCGGCTC | -0.169
138 | AGACTCTA | -0.145
139 | CCCCTGTA | -0.164
140 | CAATCAAA | 0.0568
141 | AACAATCC | 0.136
142 | ACACTAAT | 0.154
143 | CGGCTGTC | -0.0733
144 | CCTTGTAA | 0.147
145 | CCGCCCGC | -0.164
146 | ATTATTGC | 0.243
147 | GATCAGAC | -0.195
148 | AAGCCTCG | -0.113
149 | CCAAACAA | 0.0977
150 | ACACCATG | -0.0462

Row | Sequence | PBM E-score
151 | AGTTGTGA | 0.137
152 | AATACGGC | 0.0768
153 | ACGAATAC | 0.0997
154 | GGAAACAA | -0.136
155 | GAGATATA | 0.0973
156 | ATTCCTTC | 0.0265
157 | CACGTCGC | -0.0945
158 | GCAGGAGC | -0.26
159 | ATCCACAA | 0.0306
160 | ACGGCAGT | -0.121
161 | CACACTCG | 0.0822
162 | CAGCTGAC | 0.0407
163 | CTATCGGC | -0.00405
164 | CGTTGTGC | 0.114
165 | AAGGCGAC | -0.115
166 | TGTACGAA | 0.171
167 | CCGCGCGA | 0.126
168 | GTTATATA | 0.11
169 | CTCGAGAC | 0.179
170 | ATCAACTC | 0.0974
171 | AGTACGAT | 0.0546
172 | CGGGGCGA | 0.0275
